Assay results reported in the supplement of paper PMC11417369.
This is one part of the list.

Each sequence was assayed on PfAP2-HC AP2 domain (GST-tagged) (assay: gcPBM binding intensity (ln(normalized median fluorescence intensity)); higher = stronger DNA binding).
Method in brief: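 GST-tagged P. falciparum DNA-binding domains, expressed in E. coli (about 25 μg on average), were applied for 1 h to an Agilent 4 × 180k array of primer-extended double-stranded 36-bp intergenic genomic probes plus negative controls. The binding buffer was 1× PBS with 1% milk, 0.2 mg/ml BSA, 0.5% salmon testes DNA and 0.03% Triton X-100. Bound protein was detected with Alexa488 anti-GST antibody and scanned at 488 nm. Binding intensity is the highest Masliner-normalised natural-log median intensity across replicate spots of either probe orientation.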

Sequence	gcPBM binding intensity (ln)
TATTTCATCATATTGTGTACTTAATTTATATAATTA [XGTACX_site5753]	9.72
TGATAATTTTTTACATGTACAAGTTTGTTTTTGCAT [XGTACX_site125]	9.78
TTATCGGTATAATATAGTACATATAGATATATAATA [XGTACX_site1440]	9.63
GATAAAATGGATGGATGTACATTATTTCCATATAAT [XGTACX_site7781]	9.73
ATATTACTTCCTAAGTGTACAAGTAAGGAGAAAAAA [XGTACX_site3921]	9.62
AGATGTTTTTATATATGTACTTAAATACACAAATAT [XGTACX_site8250]	9.6
AAAAAAAAAAAAAACACACACACAAAATAAACAAAC [CACACA_site2720]	10.8
AAAAAAAAAAAAATGTAATTTTTTAATTATTTATAT [GTGCAC_negctrl_site436]	9.39
CATATATTTTTGTATAGTACTTTTTTTATTCGTTTT [XGTACX_site1860]	9.66
ATAATGGAGAAATAAGCATGCATTATATTATAAAAA [TGCATGCA_site325]	9.73
TAAAAGTTAATATAAACACACAAAAATTAATAAATA [CACACA_site6316]	9.83
AATTTCTATTTTGTGAGTACATACTCCTATTATATA [XGTACX_site3210]	9.76
TGAATATTTCTATATACACACATATAAATATAAATA [CACACA_site7593]	9.61
TGAATAAATATATATACACACATATATGTATATATT [CACACA_site1642]	9.77
TATATATATAATATATGTACATATTAATTATGTATA [XGTACX_site5366]	9.56
GAGTTTACACTCCCTTGTACATATTCATTTTTATTC [XGTACX_site5208]	10
GAATGCCTTGAAAATAGTACAATTAAGAAAAAATAC [XGTACX_site8002]	9.64
TAAATAAATTTATACACACACACACCGATATATATA [CACACA_site4622]	10.5
AATAAAAGATCATTTATTCTTTTTTTTCTTTTTAAA [CACACA_negctrl_site1256]	9.3
AAAATACATAAACGTTCACACATTTAAGATAACGAG [CACACA_site5345]	9.84
GAAAATTTTTGGTGTACACAAAAAAATCCAAAAAAA [CACACA_site5042]	9.7
TATGATTGTTTACGTTGTACAGCTGAATTGTTCTTA [XGTACX_site8114]	9.69

Sequence	gcPBM binding intensity (ln)
TTTTATTTTATAAAAATAAAAAAAAAATTATTACAA [TGCATGCA_negctrl_site508]	9.26
TGAAAATAGTTAATTTGTACACAAAAATTAAGAAAA [XGTACX_site5794]	9.79
AATTAAATAAATGTATGTACATAATAAATATGTATT [XGTACX_site4379]	9.75
TTTTCGATGTTGGTAGGATGTATGGTACACGTAGTA [TGCATGCA_negctrl_site61]	9.64
AAAGAAATATATACAAAAATATGAACAATTTATTAT [XGTACX_negctrl_site78]	9.75
TATGAAAATATATATTGTACAGAATCTATAAAAAAT [XGTACX_site8030]	9.61
GAATTTATGAACTGTGCATGTAAAAAAAACAACAAA [TGCATGCA_site449]	9.77
TATAATAATATATATTGTACACACAAAATGGGAAAA [XGTACX_site3911]	9.91
TATATGAAGCTATAGACACACATATAAAAATATAAT [CACACA_site4850]	9.81
CATAAACTTTTTAACACACACTTATATATATATATA [CACACA_site4747]	10
TAATTTTTATGAAGAAGTACAAAATCTACTATCATA [XGTACX_site4985]	9.15
CTAAATAAAGTTAACACACACATAATATATATATGT [CACACA_site486]	10
AAAAATTCTTTTTCATCTATATGCAGAAAGAAAAAG [CACACA_negctrl_site1201]	9.23
TACATCTGTAATGTGTGTACATATATGTATATATTT [XGTACX_site1805]	9.87
ATATATATAATATGATGTACATATTTATTTATATAT [XGTACX_site7333]	9.7
AATGAAATAAAATAAAGTACATATATGTAAAAGTAG [XGTACX_site5650]	10.4
TTTTTTTTTTTTTACACACACAAAATATTATCTGTA [CACACA_site5378]	9.85
AATTGAAAAGAATGAAGTACACATTTGATGATACAT [XGTACX_site5182]	9.68
ATATAAAAAAAAGATGAAAAAAAAAATGAAAGAAAG [CACACA_negctrl_site1266]	9.84
ATTTATATTTATGATACACACACGTATATTCACATA [CACACA_site460]	9.98
ATTTGTTTATAGGCCATAAAATATTTAATTCATTTG [CACACA_negctrl_site1824]	9.43
AGTATTATATTTGTATGTACGTAGTAATATATAAAA [XGTACX_site528]	9.67

Sequence	gcPBM binding intensity (ln)
TTTTTCATAAATATATGTACATATATTTTATATAAC [XGTACX_site3402]	9.66
AATGTAATATAAATATGTACATAATATATATAATTA [XGTACX_site4762]	9.8
TTTTTATTTTTTTAGTATACGTACTAGGTTTGTTCT [XGTACX_site645]	9.75
ATATATTTATATATATGTACTTAAAACATTTCGATG [XGTACX_site328]	9.42
AACAAGAAAAAAAAAAAAAAAAAAAAAAAATATTTT [XGTACX_negctrl_site428]	9.39
ATATATATATTTTTATGAGGCATAAGTAATATTTTT [TGCATGCA_negctrl_site317]	9.56
ATATAAAATATTAGTAGTACCATTAACAGTATTGTT [XGTACX_site5912]	9.69
ATTAAGATGTATATATGTACATATTACATACATATA [XGTACX_site8657]	9.72
AAAAAAAATTAATTAGTGCAAAATATATACAAAATA [GTGCAC_site9762]	9.8
TAAGAAAATATTTATGTATGCATGTCCTAATATTTC [TGCATGCA_site295]	9.57
TATGAAAAAAAAAATACACACACGAGTTGTTATACA [CACACA_site3188]	9.81
AATGAAATATGGATGGGTACACATTTGATTTTATTA [XGTACX_site6155]	9.61
ATATATATAAACATATGTACACATATATATAATACA [XGTACX_site1848]	9.83
TGTATGTATAGAAACACACATACATATATATAATAT [CACACA_site1405]	9.78
TTTAGATAATTCATTACACACATGTATATTTATATA [CACACA_site7602]	9.84
TTTTTTTTTTTTTTATGTACGAAAGAAAAGCACATA [XGTACX_site8261]	9.08
TAACGAATTTAAATTTGTACATATATAAATATATAA [XGTACX_site2168]	9.45
ATCATCTATGTTATTACACACGTTATGTTATTATAA [CACACA_site5502]	9.92
ATAATACACGATTATTTTCCCTTTATGTAAATATAT [CACACA_negctrl_site1107]	9.63
TATATATATAATATTGCACACAAAATTAAAAGTAAA [CACACA_site7889]	9.88
AAAAAAAAAAAATGTGTGCACATTATTTCAACTTAA	9.83
TATTTTATCTATTTGTGTACTTATATTTATGCAAAA [XGTACX_site1499]	9.62

Sequence	gcPBM binding intensity (ln)
AAATTATTAAAAAAAAGTACATATATATATATATAT [XGTACX_site8313]	9.3
ATAAATAATATATATACACACATATCTATACATATT [CACACA_site487]	9.9
TATATTCTTTATAGGTGTACTTAATAAATAAAAAAT [XGTACX_site5378]	9.44
TATGAACATAAATTTGCACACTGGATATAATATATA [CACACA_site2155]	9.76
TATATATATGTGTTTACACACAATAATGAATTAAAA [CACACA_site4659]	9.65
TATCTAGTTACTCCTTGTACATAATAAATGATTTTT [XGTACX_site5674]	9.57
AGAAAGAAAGAATACACACACACATATATAAATATC [CACACA_site7716]	10.4
ATTATCAATATGAAGGTGCATTTAAATAATATTTAC	9.61
AAATATTATAGCACCACACACTTATTTTATTTATAT [CACACA_site7133]	10.1
ACTAAACTTTTATGTACACACATATAACATTAATTT [CACACA_site5276]	9.98
TACGTAAAAATAGGACGTACTTATTTAGAAACCATA [XGTACX_site2498]	9.63
TACAAAATGGGGAACACACACATATATATATATATA [CACACA_site3844]	9.99
TTGGTACCTATAGATACACACATATATACCTATATA [CACACA_site5812]	9.74
TTTTTTTTTTTTGTCACACACCTTCATAAGAAAAAA [CACACA_site4779]	9.54
GTACAGATATTGTACATACACACCTATATAAATATC [CACACA_site5739]	9.82
TAAATCCGCAGGCACACACACATATTAAGAAAAAAA [CACACA_site6061]	10.2
ATGAAAAAACATAATTGTACAAAAGTTGGATTCGAT [XGTACX_site7732]	10
ATCATCACATAAGAAAATAGATAAAAAAAAAAAAAT [XGTACX_negctrl_site589]	9.51
ATTAAATGATTCATATGTACATAAATAAATAAATAT [XGTACX_site2249]	9.77
TTTCTTTTTAAAGTGTATTAAAATTGAATAAAAAGA [XGTACX_negctrl_site408]	9.03
TATTAATATTTACACACATGCGCACACATAAATAAA [TGCATGCA_site609]	10.2
AAAGAGAAACAAAATTGTACATTATATTGTAGACGT [XGTACX_site976]	9.75
